Results on 57 molecules are retold here after article PMC4336329 (PLoS ONE, 2015).

Screen size: about 310,000 compounds; about 2,200 (0.71%) showed an effect of 50% or more. The effect is printed as a negative number. Some of the results follow.

In this test the target is human ether-à-go-go-related gene (hERG) potassium channel (human, UniProt Q12809). Kind of test: primary screen, population patch clamp on CHO cells stably expressing hERG.
Sequence of human ether-à-go-go-related gene (hERG) potassium channel (Q12809 whole entry, looked up): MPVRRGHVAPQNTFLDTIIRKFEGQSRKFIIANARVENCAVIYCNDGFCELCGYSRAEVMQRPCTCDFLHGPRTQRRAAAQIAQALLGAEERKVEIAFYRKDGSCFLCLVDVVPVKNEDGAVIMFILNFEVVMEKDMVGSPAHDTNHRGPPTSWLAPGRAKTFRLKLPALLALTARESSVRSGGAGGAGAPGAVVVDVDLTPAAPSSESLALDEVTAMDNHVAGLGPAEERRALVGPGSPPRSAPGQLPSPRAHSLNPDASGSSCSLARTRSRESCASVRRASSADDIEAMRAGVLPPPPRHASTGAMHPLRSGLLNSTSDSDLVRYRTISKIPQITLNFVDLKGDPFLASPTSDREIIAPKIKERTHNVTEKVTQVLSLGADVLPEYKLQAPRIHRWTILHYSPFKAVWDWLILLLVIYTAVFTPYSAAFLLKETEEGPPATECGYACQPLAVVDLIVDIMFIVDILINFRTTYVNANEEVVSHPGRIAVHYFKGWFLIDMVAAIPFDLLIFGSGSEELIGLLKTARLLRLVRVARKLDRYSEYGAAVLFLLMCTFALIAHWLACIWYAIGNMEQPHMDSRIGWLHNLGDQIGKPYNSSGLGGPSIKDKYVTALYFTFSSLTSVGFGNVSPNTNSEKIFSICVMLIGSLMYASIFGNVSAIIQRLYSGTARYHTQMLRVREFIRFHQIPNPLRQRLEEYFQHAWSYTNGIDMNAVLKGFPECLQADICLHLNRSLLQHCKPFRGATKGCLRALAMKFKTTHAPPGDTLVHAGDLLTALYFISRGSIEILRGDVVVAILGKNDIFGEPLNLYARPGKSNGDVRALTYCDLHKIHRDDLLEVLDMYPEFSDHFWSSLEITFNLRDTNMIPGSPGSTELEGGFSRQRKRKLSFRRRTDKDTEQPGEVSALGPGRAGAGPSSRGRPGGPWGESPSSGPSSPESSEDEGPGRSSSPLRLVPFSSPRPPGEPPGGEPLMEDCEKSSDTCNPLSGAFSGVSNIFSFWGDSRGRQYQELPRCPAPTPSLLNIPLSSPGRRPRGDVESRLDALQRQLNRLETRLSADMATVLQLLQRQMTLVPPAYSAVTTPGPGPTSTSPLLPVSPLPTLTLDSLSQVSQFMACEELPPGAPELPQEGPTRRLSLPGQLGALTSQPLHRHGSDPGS
As to `Cc1cccc(OCC(O)Cn2ccnc2C)c1` (stereo not drawn), the “hERG current change (%, negative = inhibition) at 1uM” value is listed as 9.45%.

In the case of `Cc1nc2ncnn2c(Nc2ccc3c(c2)OCCO3)c1C`, the “hERG current change (%, negative = inhibition) at 1uM” value is listed as 8.63%.

As to `CCN(CC)c1nc(OC)nc(-n2nnc(C(C)=O)c2C)n1`, the “hERG current change (%, negative = inhibition) at 1uM” value is given as 4.43%.

For `COC(=O)c1c(NC(=O)CN2CCN(S(=O)(=O)c3ccccc3)CC2)sc2c1CCC(C)C2` (stereo not drawn), the “hERG current change (%, negative = inhibition) at 1uM” value was determined as 4.65%.

With `CCC(Sc1nncn1C)C(=O)Nc1cc(C)on1` (stereo not drawn), the “hERG current change (%, negative = inhibition) at 1uM” value is recorded as 24.4%.

Take `CC(C)(C)NC(=O)NC(=O)COC(=O)Cn1cnc2ccccc2c1=O`: the “hERG current change (%, negative = inhibition) at 1uM” value is recorded as 7.57%.

Turning to `COc1ccc(N2C(=O)C3CCCN3C2c2ccc(F)cc2)cc1Cl` (stereo not drawn), the “hERG current change (%, negative = inhibition) at 1uM” value stood at 8.28%.

With `O=C(CN(Cc1ccco1)C(=O)c1ccccc1F)Nc1ccccc1C(F)(F)F`, the “hERG current change (%, negative = inhibition) at 1uM” value is reported as -0.639%.

For the molecule `COc1ccc(NS(=O)(=O)c2c(C)n(C)c(=O)n(C)c2=O)cc1OC`, the “hERG current change (%, negative = inhibition) at 1uM” value is given as 3%.

As for `O=C(c1cccc(Cl)c1)N1CCN(c2ncccn2)CC1`, the “hERG current change (%, negative = inhibition) at 1uM” value is recorded as 10.9%.

Consider `Cn1cc([N+](=O)[O-])c(C(=O)Nc2ccc3c(c2)OCCO3)n1`, for which the “hERG current change (%, negative = inhibition) at 1uM” value is given as 12.2%.

With `CC1CN(C(=O)COC(=O)COc2ccc(C#N)cc2)CC(C)O1` (stereo not drawn), the “hERG current change (%, negative = inhibition) at 1uM” value was determined as 11.6%.

For `Cn1c(C(=O)c2ccccc2[N+](=O)[O-])nc2ccccc21`, the “hERG current change (%, negative = inhibition) at 1uM” value is reported as -9.27%.

For `CC[n+]1c(/C=C/c2ccc(N(C)C)cc2)ccc2ccccc21.[I-]`, the “hERG current change (%, negative = inhibition) at 1uM” value is listed as -27%.

In the case of `Cc1c(NC(=O)c2cccc(-c3cc4ccccc4oc3=O)c2)cccc1-c1nc2ncccc2o1`, the “hERG current change (%, negative = inhibition) at 1uM” value came to 12.7%.

For the molecule `CC(NC(=O)CCc1nnc(C2(c3ccc(Cl)cc3)CCC2)o1)C1CC1` (stereo not drawn), the “hERG current change (%, negative = inhibition) at 1uM” value was -0.143%.

For `CSc1ccccc1NS(=O)(=O)c1ccccc1`, the “hERG current change (%, negative = inhibition) at 1uM” value is on record as 4.91%.

With `O=C(c1ccccc1)N1CCN(S(=O)(=O)c2ccc(Cl)c(C(F)(F)F)c2)CC1`, the “hERG current change (%, negative = inhibition) at 1uM” value is 7.68%.

As to `COc1ccc(NC(=O)N2CCC(O)(c3cccnc3)CC2)c(OC)c1`, the “hERG current change (%, negative = inhibition) at 1uM” value worked out at 15.6%.

As for `O=C(Nc1ccncc1NC(=O)c1cccc([N+](=O)[O-])c1)c1cccc([N+](=O)[O-])c1`, the “hERG current change (%, negative = inhibition) at 1uM” value is reported as 8.76%.

As to `O=C1C=CC(=O)N1c1ccc(O)cc1`, the “hERG current change (%, negative = inhibition) at 1uM” value worked out at 7.51%.

`CCOC(=O)c1csc(N/N=C2\CCc3ccccc32)n1`: the “hERG current change (%, negative = inhibition) at 1uM” value amounted to 12.3%.

In the case of `COc1ccc(C(=O)Cc2ccc(OC)c(OC)c2)c(OC)c1`, the “hERG current change (%, negative = inhibition) at 1uM” value is reported as 12.8%.

Consider `Cc1cccc(/C=C2\Sc3ccc(C(=O)N4CCOCC4)cc3N(C)C2=O)c1`, for which the “hERG current change (%, negative = inhibition) at 1uM” value was determined as 7.7%.

`CC(C)NCCCCOc1ccccc1-c1ccccc1.O=C(O)C(=O)O`: the “hERG current change (%, negative = inhibition) at 1uM” value is given as -4.25%.

In the case of `O=C(NCCN1CCOCC1)C1CC(=O)N(c2ccc(F)c(Cl)c2)C1` (stereo not drawn), the “hERG current change (%, negative = inhibition) at 1uM” value was determined as 0.843%.

Take `Cc1ccc(-c2ccc(=O)n(CC(=O)NCCN3C(C)CCCC3C)n2)cc1` (stereo not drawn): the “hERG current change (%, negative = inhibition) at 1uM” value is reported as 7.38%.

Turning to `O=C(Nc1ccccc1SCC1CSc2nc3ccccc3c(=O)n21)c1ccccc1Cl` (stereo not drawn), the “hERG current change (%, negative = inhibition) at 1uM” value is on record as -53.2%.

For `COc1ccc(CN2C(=NC(=O)CCc3ccccc3)SC3CS(=O)(=O)CC32)cc1` (stereo not drawn), the “hERG current change (%, negative = inhibition) at 1uM” value was found to be 14.7%.

`CCCCCC(=O)Nc1nc(C)c(-c2csc(Nc3ccc(Cl)cc3)n2)s1`: the “hERG current change (%, negative = inhibition) at 1uM” value is reported as 13.5%.

`O=C1N(c2nncs2)CCN1[N+](=O)[O-]`: the “hERG current change (%, negative = inhibition) at 1uM” value stood at 14.6%.

With `O=C(Nc1ccc(S(=O)(=O)NCc2cccnc2)cc1)c1ccccc1Cl`, the “hERG current change (%, negative = inhibition) at 1uM” value came to 8.65%.

Consider `CCN(CC)C(=O)C(=O)c1cc(C)n(-c2ccc(F)cc2)c1C`, for which the “hERG current change (%, negative = inhibition) at 1uM” value is on record as 17.5%.

For the molecule `Cc1cccc(CNS(=O)(=O)c2csc(C(N)=O)c2)c1`, the “hERG current change (%, negative = inhibition) at 1uM” value was 24.9%.

On to `O=c1c2c(n3cnnc3n1C1CCCCC1)-c1ccccc1CC21CCCCC1`, for which the “hERG current change (%, negative = inhibition) at 1uM” value was determined as 10.3%.

Regarding `C/C(=N\NC(=O)c1ccc([N+](=O)[O-])cc1)c1cccc([N+](=O)[O-])c1`, the “hERG current change (%, negative = inhibition) at 1uM” value is 7.96%.

As to `COc1ccc(C2C3=C(CCCC3=O)N(CC(=O)O)C3=C2C(=O)CCC3)cc1Cl`, the “hERG current change (%, negative = inhibition) at 1uM” value is listed as 14%.

As to `CCCOc1cccc(C(=O)N(Cc2ccccc2)C2CCS(=O)(=O)C2)c1` (stereo not drawn), the “hERG current change (%, negative = inhibition) at 1uM” value turned out to be 7.37%.

In the case of `CC1CCN(S(=O)(=O)N2CCCC(C(=O)NCc3ccccc3Cl)C2)CC1` (stereo not drawn), the “hERG current change (%, negative = inhibition) at 1uM” value is given as 4.92%.

For the molecule `Cc1ccc(NC(=O)Nc2nnc(-c3ccccc3)o2)cc1`, the “hERG current change (%, negative = inhibition) at 1uM” value was determined as 5.86%.

On to `CC1CCCCC1NC(=O)COn1nnc2ccc(Cl)cc21` (stereo not drawn), for which the “hERG current change (%, negative = inhibition) at 1uM” value was -2.69%.

For the molecule `CCC1Sc2ccc(S(=O)(=O)CCC(=O)Nc3ccccc3Cl)cc2NC1=O` (stereo not drawn), the “hERG current change (%, negative = inhibition) at 1uM” value was found to be 21.3%.

With `CC(NS(=O)(=O)c1ccc(Cl)cc1)C(=O)NCc1ccco1` (stereo not drawn), the “hERG current change (%, negative = inhibition) at 1uM” value is given as -0.236%.

On to `Cc1cccc(Cc2cnc(N3C(=N)SC(C)C3=O)s2)c1` (stereo not drawn), for which the “hERG current change (%, negative = inhibition) at 1uM” value came out at 0.864%.

As for `CCC1CN(C(=O)N2CCC(C(=O)NCCc3ccccc3OC)CC2)c2ccccc2O1` (stereo not drawn), the “hERG current change (%, negative = inhibition) at 1uM” value was 3.23%.

On to `CCCn1c(SCC(=O)Nc2cccc(NC(C)=O)c2)nnc1C(C)C`, for which the “hERG current change (%, negative = inhibition) at 1uM” value turned out to be 9.33%.

In the case of `Cc1cc(SCC(=O)NCC2CCCO2)nc2ccccc12` (stereo not drawn), the “hERG current change (%, negative = inhibition) at 1uM” value was 3.84%.

With `CC1CCN(C(=O)c2ccc([N+](=O)[O-])o2)CC1`, the “hERG current change (%, negative = inhibition) at 1uM” value was 10.4%.

Take `c1ccc2c(C3=NNC(=NC4CCCCC4)SC3)c[nH]c2c1`: the “hERG current change (%, negative = inhibition) at 1uM” value is recorded as 1.78%.

For `O=C(NCc1ccccn1)Nc1ccc(Cl)c(Cl)c1`, the “hERG current change (%, negative = inhibition) at 1uM” value is -2.17%.

For `COc1cccc(OCc2nnc(SCC(=O)N3c4ccccc4Sc4ccc(Cl)cc43)o2)c1`, the “hERG current change (%, negative = inhibition) at 1uM” value was determined as 4.52%.

For `Cc1cc(OCC(=O)N2CCC(C(=O)O)(c3ccccc3)CC2)c2c(C)c(C)c(=O)oc2c1`, the “hERG current change (%, negative = inhibition) at 1uM” value came to 4.94%.

Consider `CN(CCc1ccccn1)C1CC(=O)N(c2ccc(Cl)cc2)C1=O` (stereo not drawn), for which the “hERG current change (%, negative = inhibition) at 1uM” value is 8.69%.

For the molecule `COc1ccc(NC(=S)N2CCNC(=O)C2CC(=O)Nc2ccc(C)cc2)cc1` (stereo not drawn), the “hERG current change (%, negative = inhibition) at 1uM” value came out at 6.98%.

For the molecule `CC(C)N=Cc1c(O)[nH]c2ccccc12`, the “hERG current change (%, negative = inhibition) at 1uM” value turned out to be 9.58%.

Consider `CC1(C)CC(=O)/C(=C(\O)Cc2ccccc2)C(=NCCCCCC(=O)O)C1`, for which the “hERG current change (%, negative = inhibition) at 1uM” value is given as -4.34%.

Consider `CCc1ccc(N=C2NC(=O)/C(=C/c3ccc(OCC(=O)O)cc3)S2)cc1`, for which the “hERG current change (%, negative = inhibition) at 1uM” value was determined as 9.62%.
